Measured values from the supplement of paper PMC9446081.
The campaign covered roughly 39,000 compounds. About 220 (0.56%) showed activity. Some of the results follow.

Test system: Escherichia coli K-12 BW25113
Experiment: relative growth (OD600 normalised to plate interquartile mean) (fraction); higher = less growth inhibition, active = 0.2 or less
Settings: 50 µM; LB; incubation time: overnight (16-24 h)
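Note: static incubation at 37 °C against the wild-type strain, values averaged over two biological replicates.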

SMILES | relative growth
Cn1c(=O)n2n(c1=O)[C@H](C1CC1)C=C1CN3[C@@H]([C@H](Cc4ccccc4)OC(=O)[C@@H]3Cc3ccc(-n4cc(CCC(=O)NO)nn4)cc3)[C@@H]12 | inactive: 0.987
O=C1OCC=C[C@H]2O[C@@]34C=CCN(CCN5CCOCC5)C(=O)[C@H]3N(CCCO)C(=O)[C@@H]4[C@@H]12 | inactive: 0.987
CC(C)C#Cc1ccc2c(c1)O[C@@H](CN(C)C(=O)Cc1ccccn1)[C@H](C)CN([C@@H](C)CO)S2(=O)=O | inactive: 1.02
C[C@H]1CN([C@@H](C)CO)C(=O)c2cc(-c3cccc(C(=O)N(C)C)c3)cnc2O[C@H]1CN(C)S(=O)(=O)c1ccccc1 | inactive: 0.993
C[C@H]1CN([C@@H](C)CO)C(=O)c2c(c3ccccc3n2C)-c2ccccc2CO[C@@H]1CN(C)C(=O)c1cc(Cl)cc(Cl)c1 | inactive: 1.01
O=c1cc[nH]c(=O)[nH]1 | inactive: 1.15
NCc1cc2ccc(F)cc2[nH]c1=O | inactive: 1
CO[C@H]1CN(C)C(=O)c2cc(NS(C)(=O)=O)ccc2OC[C@H](C)N(S(C)(=O)=O)C[C@H]1C | inactive: 1.01
C[C@H]1CN([C@@H](C)CO)C(=O)c2ccccc2-c2ccccc2CO[C@H]1CN(C)Cc1ccc(-c2ccccc2)cc1 | inactive: 0.998
C[C@H](CO)N1C[C@H](C)[C@H](CN(C)C(=O)c2ccccc2)OCCCC[C@H](C)Oc2ccc(NC(=O)Nc3ccccc3)cc2C1=O | inactive: 0.999
CNC(=O)[C@H]1C[C@H]2CCN(S(=O)(=O)N(C)C)C[C@H]2O1 | inactive: 0.966
Cc1ccc(Nc2ncc3c(n2)N(C)C(=O)N(c2cc(NC(=O)c4cccc(C(F)(F)F)c4)ccc2C)C3)cn1 | inactive: 1.08
Cc1noc(C)c1NC(=O)Nc1cccc2c1O[C@@H](CN(C)C(=O)NC(C)C)[C@H](C)CN([C@H](C)CO)C2=O | inactive: 0.987
C[C@@H]1CN([C@@H](C)CO)C(=O)c2cc(NS(C)(=O)=O)ccc2O[C@@H]1CN(C)S(=O)(=O)c1cccs1 | inactive: 0.999
Cc1ccc(S(=O)(=O)N(C)C[C@H]2Oc3ccc(NS(=O)(=O)c4c(C)noc4C)cc3CC(=O)N([C@@H](C)CO)C[C@H]2C)cc1 | inactive: 0.989
C[C@@H](CC(=O)O)n1ccnc1 | inactive: 1.02
C[C@@H]1CCCCO[C@H](CN(C)C(=O)Nc2ccc3c(c2)OCO3)[C@@H](C)CN([C@H](C)CO)C(=O)c2cc(NC(=O)NC3CCCCC3)ccc2O1 | inactive: 0.977
C[C@H]1CN([C@@H](C)CO)C(=O)c2cccc(NC(=O)c3ccncc3)c2O[C@@H]1CN(C)S(=O)(=O)c1cccs1 | inactive: 1.02
C[C@@H]1CN([C@H](C)CO)C(=O)c2cc(NC(=O)Nc3ccccc3)ccc2O[C@@H](C)CCCCO[C@H]1CN(C)Cc1ccncc1 | inactive: 1.01
CC(C)(C)[S@@](=O)N1Cc2cc(C(=O)NCc3ccncc3)nc(-c3cccc(-c4cccc(C#N)c4)c3)c2[C@H]1CCO | inactive: 0.992
Cn1c(S(=O)(=O)CC(N)=O)nc2ccccc21 | inactive: 1.03

SMILES | relative growth
COc1cccc(C(=O)Nc2ccc3c(c2)C(=O)N(C)[C@H]2CC[C@H](CC(=O)NCC4CC4)O[C@H]2CO3)c1 | inactive: 1.01
Cc1noc(C)c1NC(=O)Nc1ccc2c(c1)C(=O)N([C@@H](C)CO)C[C@@H](C)[C@@H](CN(C)C(=O)Nc1cccc3ccccc13)OCCCC[C@@H](C)O2 | inactive: 0.997
C[C@@H]1CN([C@H](C)CO)C(=O)CCCn2cc(nn2)CO[C@H]1CN(C)S(=O)(=O)c1ccc(-c2ccccc2)cc1 | inactive: 0.924
C[C@@H]1CCCCO[C@@H](CN(C)C(=O)Cc2ccccc2)[C@@H](C)CN([C@H](C)CO)C(=O)c2cc(NC(=O)Nc3ccc4c(c3)OCO4)ccc2O1 | inactive: 1.02
C[C@H]1CN([C@@H](C)CO)C(=O)CCCn2nncc2CO[C@@H]1CN(C)S(=O)(=O)c1ccc(C#N)cc1 | inactive: 1
CC#CCCC(=O)O | inactive: 1.01
C[C@@H]1CCCCO[C@H](CN(C)Cc2ccncc2)[C@H](C)CN([C@H](C)CO)C(=O)c2cc(NC(=O)CCC(F)(F)F)ccc2O1 | inactive: 0.991
C[C@H]1CN([C@@H](C)CO)C(=O)Cc2cc(NC(=O)Cc3cn(C)c4ccccc34)ccc2O[C@@H]1CN(C)S(=O)(=O)c1cn(C)cn1 | inactive: 1.01
Cc1noc(C)c1NC(=O)N(C)C[C@@H]1Oc2ccc(NS(=O)(=O)c3ccccc3)cc2CC(=O)N([C@@H](C)CO)C[C@H]1C | inactive: 1
Cc1noc(C)c1S(=O)(=O)Nc1ccc2c(c1)C(=O)N([C@H](C)CO)C[C@@H](C)[C@@H](CN(C)Cc1ccccc1)OCCCC[C@H](C)O2 | inactive: 0.997
CCCN(C)C[C@H]1OCCCC[C@@H](C)Oc2ccc(NC(=O)Cc3ccccc3)cc2C(=O)N([C@@H](C)CO)C[C@H]1C | inactive: 0.939
COc1ccc(Sc2ccc(N(C(=O)c3ccccc3Cl)C(=O)c3ccccc3Cl)cc2C#N)cc1 | inactive: 1.03
NC(=O)c1cccnc1 | inactive: 1.1
NCCC(=O)N[C@@H](Cc1cnc[nH]1)C(=O)O | inactive: 1
Cc1ccc(S[C@]2(C(=O)NCC(C)C)CC(=O)N(Cc3ccccc3Cl)[C@@H]2c2ccc(CO)cc2I)cc1 | inactive: 1.04
Nc1nccs1 | inactive: 1.12
CC(C)CCCC(C)C1CCC2C3CC=C4CC(=O)CCC4(C)C3CCC12C (stereo unspecified) | inactive: 1.08
C[C@@H]1CCCCO[C@H](CN(C)CC2CCCCC2)[C@H](C)CN([C@@H](C)CO)C(=O)c2cc(NS(=O)(=O)c3ccc(F)cc3)ccc2O1 | inactive: 0.98
COCCOC(=O)N1C(=O)[C@@]2(c3ccccc31)[C@H](c1ccc(O)cc1)N1[C@H](c3ccccc3)[C@H](c3ccccc3)OC(=O)[C@H]1[C@@H]2C(=O)Nc1nc2ccccc2s1 | inactive: 1.03
Cc1ccc(S(=O)(=O)Nc2ccc3c(c2)CC(=O)N([C@H](C)CO)C[C@@H](C)[C@H](CN(C)S(=O)(=O)c2cccs2)O3)cc1 | inactive: 0.994
